Test results published in PubChem BioAssay AID485294 (National Center for Advancing Translational Sciences (NCATS), 2010).
Screen size: about 370,000 compounds; about 150 (0.041%) were called active. The inconclusive results got no clear call from the source; some entries with a clear call stand among them for comparison. The call rests on the fitted dose curve; in most records, active means well fitted inhibition curve with a large enough effect; inconclusive means small, poorly fitted or top-dose-only effect; inactive means flat fitted curve, though single readings scatter. No potency is given beside an inconclusive call; the fits are too rough.
Further: nearly all actives have a fitted effect of over 25% in size.
Potency means the concentration at half of the fitted maximal effect; tags describe the fitted curve by direction and shape.

What follows are molecules tested against Beta-lactamase (Escherichia coli (strain K12)) (UniProt P00811) (assay: qHTS Inhibitors of AmpC Beta-Lactamase (assay with detergent)). Settings: AmpC hydrolysis of nitrocefin, absorbance 480 nm, 0.01% Triton; series mostly up to 114 µM.
Sequence of UniProt P00811 (P00811 whole entry, looked up): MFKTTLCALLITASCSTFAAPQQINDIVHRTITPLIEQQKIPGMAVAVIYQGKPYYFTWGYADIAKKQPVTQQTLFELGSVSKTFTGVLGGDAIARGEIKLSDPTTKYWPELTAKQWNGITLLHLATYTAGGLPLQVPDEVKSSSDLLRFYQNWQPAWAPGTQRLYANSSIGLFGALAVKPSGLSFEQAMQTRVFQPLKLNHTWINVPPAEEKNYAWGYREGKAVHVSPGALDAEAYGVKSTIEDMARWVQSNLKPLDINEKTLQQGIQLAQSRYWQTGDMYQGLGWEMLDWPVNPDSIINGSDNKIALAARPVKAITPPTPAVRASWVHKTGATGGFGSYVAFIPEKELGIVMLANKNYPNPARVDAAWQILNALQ
Procedure, shortened: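 20 mM phosphate pH 7.0 + 0.01% (detergent screen) or 0.0001% Triton X-100; 5.3 nM AmpC reagent; cpd preinc 15 min RT; nitrocefin (800 uM stock) to start; A480 q20 s × 4 min; Activity was normalised to no-enzyme and no-compound control wells.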
For `O=C(Nc1ccc(C(F)(F)F)cc1)C1CCCN1S(=O)(=O)c1cccc2cccnc12` (stereo not drawn), the Potency was inconclusive [inhibitor, single point].
For `CCC(Sc1ccc2nnc(-c3cccnc3)n2n1)C(=O)O` (stereo not drawn), the Potency was inconclusive [inhibitor, partial curve].
`C/C(=N\O)C(C)(C)Nc1cccc(F)c1` was tested, and the Potency was “inactive”.
For `Cc1nc2c(sc3nc4c(cc32)COC(C)(C)C4)c(=O)n1Cc1ccccc1`, the Potency was “inactive”.
`CCOC(=O)C(CC)n1cnc2c(nnn2-c2ccc(C)cc2)c1=O` (stereo not drawn) was tested, and the Potency was inconclusive [inhibitor, single point].
In the case of `COc1ccc(-c2cc(C(=O)N(C)CC(=O)Nc3ccccc3Cl)c3ccccc3n2)cc1OC`, the Potency is reported as inconclusive [inhibitor, full curve, poor fit].
`Cc1ccc(NC(=S)N/C(=N/S(=O)(=O)c2ccccc2)c2ccccc2)cc1` was tested, and the Potency was “inactive”.
With `COc1cccc(/C=N/Nc2nc(Nc3ccc([N+](=O)[O-])cc3)nc(N3CCCC3)n2)c1O` the Potency was “inactive”.
With `O=C(Nc1nnc(C2CC2)s1)c1cc(-c2ccccc2)nn1-c1ccccc1` the Potency was inconclusive [inhibitor, full curve, poor fit].
For `COCc1cc(C)nc2sc3c(=O)n(-c4cc(C)ccc4C)nnc3c12`, the Potency was “inactive”.
In the case of `CCC(NC(=O)Nc1nnc(C(F)(F)F)s1)(C(F)(F)F)C(F)(F)F`, the Potency is reported as “inactive”.
In the case of `Nc1ccccc1C(=O)N(Cc1ccccc1)Cc1ccccc1`, the Potency is reported as inconclusive [inhibitor, full curve, poor fit].
For `COc1ccccc1N1CCN(Cc2ccc(Br)s2)CC1`, the Potency was inconclusive [inhibitor, full curve].
`COc1ccc(N2CC(C(=O)NCCC3=CCCCC3)CC2=O)cc1` (stereo not drawn) was tested, and the Potency was inconclusive [inhibitor, partial curve, poor fit].
`O=C1NCCNC1(c1c[nH]c2ccccc12)C(F)(F)F` (stereo not drawn) was tested, and the Potency was inconclusive [inhibitor, full curve, poor fit].
For `COc1ccc(-n2cnnc2SCC(=O)Nc2cccc([N+](=O)[O-])c2)cc1`, the Potency was inconclusive [inhibitor, full curve, poor fit].
With `COc1ccc(NS(=O)(=O)c2cccc(C(=O)NNC(=O)c3cncc(Br)c3)c2)cc1` the Potency was “inactive”.
In the case of `CC(C)(C)c1ccc(C(=O)NCC(=O)OCC(=O)c2ccc3c(c2)-c2ccccc2C3)cc1`, the Potency is reported as inconclusive [inhibitor, full curve].
For `CC(=O)Oc1ccc(NC(=O)Cc2ccccc2)c(C(=O)O)c1`, the Potency was “inactive”.
For `O=C(Nc1ccc(O)cc1)c1cc(S(=O)(=O)N2CCCC2)ccc1Cl`, the Potency was inconclusive [inhibitor, full curve, poor fit].
In the case of `Nc1cccc2c1nnn2C1OC(CO)C(O)C(O)C1O` (stereo not drawn), the Potency is reported as inconclusive [inhibitor, partial curve, poor fit].
In the case of `COc1ccc(C(C(=O)NC2CCCCC2)N(C(=O)c2snc(C(N)=O)c2N)c2ccc(OC)cc2OC)cc1` (stereo not drawn), the Potency is reported as “inactive”.
`O=C(Nc1nsc(-c2ccccc2)n1)c1ccc(F)cc1` was tested, and the Potency was inconclusive [inhibitor, single point].
With `COc1ccc2[nH]c3c(c2c1)CCN1C(=O)N([C@@H](C)C(=O)NC2CCN(Cc4ccccc4)CC2)C(=O)[C@]31C` the Potency was inconclusive [inhibitor, full curve, poor fit].
With `Cc1cc(C)n2nc(S(=O)(=O)N(CC(C)C)CC(C)C)nc2n1` the Potency was inconclusive [inhibitor, full curve, poor fit].
For `NS(=O)(=O)c1ccccc1NC(=S)Nc1ccccc1S(N)(=O)=O`, the Potency was inconclusive [inhibitor, single point].
With `Cc1cc(C)cc(OCC(=O)Nc2cccc(-c3nc4ncccc4o3)c2)c1` the Potency was inconclusive [inhibitor, full curve, poor fit].
`O=C(CCNC(=O)C1CCN(S(=O)(=O)c2ccccc2)CC1)NCc1cccc(C(F)(F)F)c1` was tested, and the Potency was inconclusive [inhibitor, partial curve, poor fit].
For `Cc1occc1-c1nnc(SCC(=O)Nc2ccccc2-c2ccccc2)n1C`, the Potency was inconclusive [inhibitor, full curve].
For `CCC(c1nnnn1Cc1ccc(F)cc1)N1CCN(C2CCCCC2)CC1` (stereo not drawn), the Potency was inconclusive [inhibitor, full curve, poor fit].
`CC12CCC(C(=O)NCC3CCCO3)(OC1=O)C2(C)C` (stereo not drawn) was tested, and the Potency was inconclusive [inhibitor, single point].
In the case of `NC(=O)C1CC=CCC1C(=O)OCC(Cl)=C(Cl)Cl` (stereo not drawn), the Potency is reported as inconclusive [inhibitor, partial curve, poor fit].
With `CCCCOC(=O)c1ccc(NC(=O)COC(=O)CSc2nc(C)cc(C)n2)cc1` the Potency was “inactive”.
`CCOc1ccccc1C(=O)OCC(=O)Nc1nnc(-c2ccccc2)o1` was tested, and the Potency was inconclusive [inhibitor, full curve, poor fit].
With `O=C(Nc1ccc2c(c1)OCCO2)C(=S)NCc1ccccc1` the Potency was inconclusive [inhibitor, full curve, poor fit].
For `O=C(CCc1c[nH]c2ccccc12)NCc1ccncc1`, the Potency was inconclusive [inhibitor, partial curve].
In the case of `COc1ccc(C(c2c(O)cc(C)n(Cc3ccco3)c2=O)N2CCN(c3ccccc3)CC2)cc1` (stereo not drawn), the Potency is reported as “inactive”.
`O=[N+]([O-])c1ccc(-c2nc(NCc3ccccc3)c3ccccc3n2)cc1` was tested, and the Potency was inconclusive [inhibitor, single point].
`O=C(Nc1ccc(S(=O)(=O)Nc2ccccc2F)cc1)N1CCCCC1` was tested, and the Potency was “inactive”.
For `O=C(Nc1ccccc1Cl)C1(c2ccccc2)CC1(Cl)Cl` (stereo not drawn), the Potency was inconclusive [inhibitor, partial curve].
In the case of `CCOc1ccc(C2CC(c3ccccc3C)n3nc(N)nc3N2)cc1` (stereo not drawn), the Potency is reported as “inactive”.
In the case of `COc1ccc(C(c2nnnn2CC2CCCO2)N2CCN(c3ccccc3)CC2)cc1` (stereo not drawn), the Potency is reported as “inactive”.
With `Cc1ccc([C@@H]2CC=C(C(=O)O)[C@H](c3cccc(Cl)c3)N2S(=O)(=O)c2ccc(C)cc2)cc1` the Potency was inconclusive [inhibitor, single point].
For `CC(C(=O)N(C)C)N1c2cccc3cccc(c23)S1(=O)=O` (stereo not drawn), the Potency was inconclusive [inhibitor, partial curve, poor fit].
In the case of `COc1ccc(C2=NN(C(=O)COC(=O)c3ccc(NC(=O)CC#N)cc3)C(c3ccco3)C2)cc1` (stereo not drawn), the Potency is reported as inconclusive [inhibitor, single point].
`O=C(NCc1ccc(Cl)cc1)c1cnc2sc(N3CCCCCC3)nn2c1=O` was tested, and the Potency was “inactive”.
For `Cc1nnc(NCc2ccncc2)c2ccccc12`, the Potency was inconclusive [inhibitor, partial curve, poor fit].
For `CCN(CC)c1ccc(SS(=O)(=O)O)cc1`, the Potency was inconclusive [inhibitor, single point].
In the case of `O=C1C2C(C(=O)N1Cc1ccco1)C1C=CC2C12CC2` (stereo not drawn), the Potency is reported as “inactive”.
In the case of `CCCOc1ccc(-c2cccc(NS(=O)(=O)c3cc(OC)ccc3OC)c2)nn1`, the Potency is reported as inconclusive [inhibitor, single point].
With `Cc1ccccc1C(=O)NCC(=O)OC1CCCCC1=O` (stereo not drawn) the Potency was inconclusive [inhibitor, full curve, poor fit].
For `Cc1cccc(NC(=O)c2ccc3[nH]c(=O)c(=O)[nH]c3c2)n1`, the Potency was “inactive”.
In the case of `COc1cccc(C(=O)NN2c3ccccc3CCc3ccccc32)c1`, the Potency is reported as “inactive”.
In the case of `Cc1ccccc1NC1=CC(=O)CC(C)(C)C1`, the Potency is reported as inconclusive [inhibitor, single point].
In the case of `CC(=O)Nc1ccc(C(=O)CN2CCN(c3ccccc3)CC2)cc1`, the Potency is reported as inconclusive [inhibitor, partial curve, poor fit].
For `CCOC(=O)Cn1cc(C(=O)C2CC2)c2ccccc21`, the Potency was inconclusive [inhibitor, full curve, poor fit].
With `N/C(=N\OC(=O)c1cccs1)c1cccc(Br)c1` the Potency was “inactive”.
In the case of `O=C(Nc1ccc2c(c1)OCCO2)c1cnc2n(c1=O)CCS2`, the Potency is reported as inconclusive [inhibitor, partial curve].
For `C/C(=N\Nc1cc(N2CCOCC2)ncn1)c1ccccc1`, the Potency was inconclusive [inhibitor, full curve, poor fit].
`Cc1cc(C(=O)COC(=O)Cc2n[nH]c(=O)c3ccccc23)c(C)n1-c1cccc(C(F)(F)F)c1` was tested, and the Potency was inconclusive [inhibitor, partial curve].
For `CCCCN(C)CCNC(=O)C1CCN(c2nc3ccc(CC)cc3s2)CC1`, the Potency was “inactive”.
With `CNc1nc(C)nc(-c2ccccc2O)n1` the Potency was inconclusive [inhibitor, full curve, poor fit].
With `CCC(c1nnnn1CCc1ccccc1)N(Cc1ccco1)Cc1cc2cc(C)cc(C)c2[nH]c1=O` (stereo not drawn) the Potency was inconclusive [inhibitor, full curve, poor fit].
`COc1cc(/C=N/Nc2ncc(C(F)(F)F)cc2Cl)cc(OC)c1O` was tested, and the Potency was “inactive”.
With `CC1CCCCN1CCCNC(=O)C1CCN(c2nc3ccccc3o2)CC1` (stereo not drawn) the Potency was inconclusive [inhibitor, full curve, poor fit].
With `CC(=O)N1CCN(c2ccc(NC(=O)c3ccc([N+](=O)[O-])o3)cc2Cl)CC1` the Potency was “inactive”.
With `CCCN(CCC)C(=O)C[n+]1cccc(/C=N/O)c1` the Potency was “inactive”.
`CCCCn1c(O)c(C(C)=NCCN2CCCCC2)c(=O)[nH]c1=O` was tested, and the Potency was “inactive”.
